# Results: PMC6919601, “Identification of Plasmodium dipeptidyl aminopeptidase allosteric inhibitors by high throughput screening” (PLoS ONE, 2019)
# Out of some 110,000 compounds screened, about 230 (0.21%) showed an effect of 50% or more. This is one part of the list.
# Biological target: DPAP1 (Plasmodium falciparum, UniProt Q8IIJ9)
# Assay: primary screen, percent inhibition; read by cleavage of a fluorogenic dipeptide substrate; higher = more effect of the substance
# Set-up: species or system P. falciparum D10 trophozoite lysates; single well
# 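Also: 30 min substrate incubation versus DMSO and 10 µM JCP410 controls.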
# Chain of DPAP1 (Q8IIJ9 whole entry, looked up): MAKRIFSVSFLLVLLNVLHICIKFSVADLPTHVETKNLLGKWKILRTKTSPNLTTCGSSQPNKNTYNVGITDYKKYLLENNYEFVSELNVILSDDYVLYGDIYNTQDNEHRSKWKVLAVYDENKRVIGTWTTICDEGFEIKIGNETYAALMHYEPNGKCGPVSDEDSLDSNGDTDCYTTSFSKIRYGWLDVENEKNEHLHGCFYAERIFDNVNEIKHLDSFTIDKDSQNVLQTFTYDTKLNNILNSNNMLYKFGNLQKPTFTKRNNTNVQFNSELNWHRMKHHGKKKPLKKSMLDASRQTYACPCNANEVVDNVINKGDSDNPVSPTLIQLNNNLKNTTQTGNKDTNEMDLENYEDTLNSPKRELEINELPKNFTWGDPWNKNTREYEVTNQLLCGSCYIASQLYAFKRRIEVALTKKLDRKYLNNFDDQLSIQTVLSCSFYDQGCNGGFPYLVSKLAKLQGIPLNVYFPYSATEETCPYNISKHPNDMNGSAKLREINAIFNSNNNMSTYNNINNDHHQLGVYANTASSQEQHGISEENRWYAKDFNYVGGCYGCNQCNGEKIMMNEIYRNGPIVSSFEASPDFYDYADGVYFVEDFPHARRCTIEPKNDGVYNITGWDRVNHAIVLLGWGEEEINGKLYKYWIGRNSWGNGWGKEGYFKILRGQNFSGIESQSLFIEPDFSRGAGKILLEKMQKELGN
row,SMILES,% Inhibition @ 10 uM
1,CCOc1ccc(-c2[nH]nc3c2C(c2ccncc2)C(C#N)=C(N)O3)cc1OC (stereo not shown),0.503%
2,Cc1ccc(NC(=O)c2cccc(S(=O)(=O)N3CCCCC3)c2)cc1,7.62%
3,N#CC1=C(N)OC2=C(C(=O)c3ccccc3C2=O)C1c1cccc(C(F)(F)F)c1 (stereo not shown),-8.01%
4,CCC[C@H](NC(=O)[C@@H](CC(C)C)NC(=O)c1ccc(N2CCN(C)CC2)cc1)C(=O)c1nnc(-c2ccco2)o1,0.173%
5,COc1cccc(Cn2c(C)c(CNCCc3ccccc3Cl)c(C(=O)O)c2C)c1,-3.67%
6,O=C(CCc1nnc2n(CCc3ccccc3)c(=O)c3ccccc3n12)NCC1CCCO1 (stereo not shown),-2.42%
7,CCOC(=O)c1cc(-c2ccc(F)cc2)n(CCC(=O)N2CCCCC2)c1C,-3.64%
8,O=C(O)c1ccccc1C(=O)Nc1ccc(S(=O)(=O)N2CCCCCC2)cc1,3.8%
9,CC(C)N(C(=O)Nc1ccccc1)C(C)C,3.03%
10,Cc1ccc2ncc(C(=O)c3ccc(C)c(C)c3)c(N3CCC(C(N)=O)CC3)c2c1,0.383%
11,CC1CCCN(Cc2ccccc2[N+](=O)[O-])C1 (stereo not shown),-1.78%
12,O=C1Cc2ccccc2C(c2ccccc2Cl)N1 (stereo not shown),-5.2%
13,COCCNC(=O)CCCc1nnc2n(CC(C)C)c(=O)c3sccc3n12,-1.87%
14,CCc1cc(OC)c(OC)cc1C(C)NC(=O)c1ccc(OC)cc1 (stereo not shown),0.13%
15,COc1ccc(Nc2nc(Cl)nc(NCc3cccnc3)n2)cc1,-1.44%
16,CC(=O)NCCNC(=O)c1ccc(Cn2c(=O)[nH]c3ccsc3c2=O)cc1,-6.5%
17,CC(C)(C)c1ccc(S(=O)(=O)N2CCC(Oc3ccc4c(c3)OCO4)CC2)cc1,2.29%
18,CC(=O)NC(c1ccccc1)c1cccnc1 (stereo not shown),8.97%
19,COc1ccc(/C=C2/SC(N3CCOCC3)=NC2=O)cc1Br,0.323%
20,COc1cccc2c(O)c(NC(=O)NCCCn3ccnc3)cnc12,-3.08%
21,CCc1ccc(OCC(=O)NC(CC(=O)O)c2ccc(C(C)(C)C)cc2)cc1 (stereo not shown),-0.703%
22,COc1ccc(N2C(=O)C(Cl)=C(Nc3ccc(F)cc3)C2=O)cc1,-0.318%
23,COc1cc(NCc2cc(F)ccc2F)cc(OC)c1,-6.82%
24,CCOc1ccccc1/C=C(\NC(=O)c1ccccc1)C(=O)N1CCCCCC1,-1.06%
25,CCOC(=O)C1=C(CN2CCN(c3ccccn3)CC2)NC(=O)NC1c1ccc(OC(C)C)cc1 (stereo not shown),2.39%

row,SMILES,% Inhibition @ 10 uM
1,CCC[C@H](NC(=O)[C@H](C)NC(=O)[C@H](CCC(=O)OC(C)(C)C)NC(=O)[C@@H](NC(=O)OCc1ccccc1)C(C)CC)C(=O)c1nnc(-c2ccccc2)o1 (stereo partly shown),-1.7%
2,COc1ccc(N2C(=O)c3ccc(C(=O)O)cc3C2=O)cc1NC(=O)c1ccccc1,2.17%
3,CCN(CC)C(=O)C1CCCN(CC2CCCCC2)C1 (stereo not shown),-8.8%
4,Cc1cc(NC(=O)COc2ccc(Cl)cc2)ccc1Br,5.49%
5,Cc1ccc(S(=O)(=O)NCC2COc3ccccc3O2)cc1 (stereo not shown),-0.641%
6,CCOC(=O)c1ccccc1NC(=O)CCN1C(=O)c2ccccc2C1=O,-5.38%
7,CN(CCc1ccccn1)Cc1ccoc1,-0.636%
8,CN(C)C(=O)c1ccc2c3c(cccc13)CC2,2.79%
9,C=CC(Oc1ccc(C=O)cc1)c1ccccc1 (stereo not shown),-4.91%
10,Cc1ccc(C)n1-c1ccc(Cl)cc1,-3.53%
11,c1ccc(/N=c2\scc(-c3ccccc3)n2Cc2cccnc2)cc1,1.57%
12,O=C(NCc1ccc(F)cc1)[C@@H](c1ccccc1)N1Cc2ccccc2C1=O,-4.1%
13,CCCCN(Cc1ccco1)S(=O)(=O)c1csc(C(N)=O)c1,1.9%
14,CN(C)S(=O)(=O)N1C=Cc2ccccc2C1c1c[nH]c2ccccc12 (stereo not shown),6.5%
15,COc1ccc(CNC(=O)CN2C(=O)c3ccccc3S2(=O)=O)cc1,0.475%
16,Cc1cccn2c(=O)c3cc(C(=O)NCC4CCCO4)n(C)c3nc12 (stereo not shown),0.522%
17,CC(C)(C)NC(=O)c1oc2ccccc2c1NC(=O)C(C)(C)C,-0.528%
18,COc1ccc(C2NC(S)=NC(C)=C2C(=O)NCc2ccccc2)cc1 (stereo not shown),-8.57%
19,COc1ccc2c(c1OC)C(=O)N(c1ccc(O)cc1)C2,-1.15%
20,CCOC(=O)c1ccc2ncc(C(=O)OCC)c(O)c2c1,-3.69%
21,CCOc1ccc(C2C3=C(O)CC(C)(C)CC3=NC3=C2C(=O)CC(C)(C)C3)cc1OC (stereo not shown),1.37%
22,C=CCNc1nc2c(c(=O)[nH]c(=O)n2C)n1Cc1cccc(C)c1,-7.23%
23,O=C(O)C1CC=CCC1C(=O)NCc1cn(-c2ccccc2)nc1-c1ccccc1 (stereo not shown),2.32%
24,O=S(=O)(c1c[nH]cn1)N1CCN(C(c2ccc(F)cc2)c2ccc(F)cc2)CC1,-2.5%
